According to PubChem BioAssay (Tox21):
Where “and” joins values, the source holds several entries; their conditions need not be identical. Equal values may be shown once. The inconclusive results got no clear call from the source; some entries with a clear call stand among them for comparison. A potency beside an inconclusive call is a rough fit, not a confirmed value. Calls of active or inactive are those of the source. Unless noted, calls come from the whole dose curve; as a rule, active = well fitted curve in the direction sought with a large enough effect in the repeat runs; inconclusive = weak or mixed curves; inactive = no such curve, though single readings can be large; an effect the other way counts as inactive or inconclusive.

system: not listed separately; test: qHTS assay to identify small molecule antagonists of the estrogen receptor alpha (ER-alpha) signaling pathway using the BG1 cell line in the presence of 0.1 nM 17-beta-estradiol - cell viability counter screen (AID 1259241); conditions: VM7Luc4E2 (BG1) viability, CellTiter-Fluor protease, 22 h, 0.1 nM estradiol agonist added; series mostly up to 92.4 µM; activity change, negative = cytotoxicity: at the top concentration; note: nearly all actives have a fitted effect of over 40% in size; for activity change, negative = cytotoxicity: % is set by controls: 0 for no effect and ±100 for the full control effect
How it was run: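 Estradiol-stimulated (0.1 nM) VM7Luc4E2 cells exposed to compounds 22 hr; viability measured by fluorescence of cleaved CellTiter-Fluor substrate after 30 min.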
Potency is the fitted concentration of half-maximal effect; tags give direction and shape of the fitted curve.

Compound | activity change, negative = cytotoxicity | Potency
CC1(C)O[C@H]2CC(=O)OC[C@]23[C@H]2CC[C@@]4(C)[C@H](c5ccoc5)OC(=O)[C@H]5O[C@]54[C@]2(C)C(=O)C[C@@H]13 | inactive: 3.14% [at 42.5 µM] | –
CCN(CC)C(=O)N1CCN(C)CC1 | inactive: 3.95% [at 42.5 µM] | –
Nc1ccc(S(=O)(=O)NC(=O)c2ccccc2)cc1 | inactive: -2.2% [at 42.5 µM] | –
OCCN(CCO)c1nc(N2CCCCC2)c2nc(N(CCO)CCO)nc(N3CCCCC3)c2n1 | – | inconclusive: 21.1 µM [rising, partial curve]

molecular target: Estrogen receptor (Homo sapiens) (UniProt P03372); test: qHTS assay to identify small molecule antagonists of the estrogen receptor alpha (ER-alpha) signaling pathway using the BG1 cell line in the presence of 0.1 nM 17-beta-estradiol (AID 1259244); conditions: VM7Luc4E2 (BG1) ERE-luciferase, antagonist mode, 0.1 nM E2, 22 h; series mostly up to 92.4 µM; activity change, negative = inhibition: at the top concentration; note: nearly all actives have a fitted effect of over 50% in size
How it was run: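 VM7Luc4E2 cells (endogenous full-length ER-alpha, 4×ERE-luciferase), kept 5 days in phenol red-free, charcoal-stripped FBS medium; 4,000 cells/well. Compounds added with 0.1 nM (final) 17beta-estradiol, 22 hr at 37C; luminescence read with ONE-Glo after 30 min.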

Chain of UniProt P03372 (P03372 whole entry, looked up): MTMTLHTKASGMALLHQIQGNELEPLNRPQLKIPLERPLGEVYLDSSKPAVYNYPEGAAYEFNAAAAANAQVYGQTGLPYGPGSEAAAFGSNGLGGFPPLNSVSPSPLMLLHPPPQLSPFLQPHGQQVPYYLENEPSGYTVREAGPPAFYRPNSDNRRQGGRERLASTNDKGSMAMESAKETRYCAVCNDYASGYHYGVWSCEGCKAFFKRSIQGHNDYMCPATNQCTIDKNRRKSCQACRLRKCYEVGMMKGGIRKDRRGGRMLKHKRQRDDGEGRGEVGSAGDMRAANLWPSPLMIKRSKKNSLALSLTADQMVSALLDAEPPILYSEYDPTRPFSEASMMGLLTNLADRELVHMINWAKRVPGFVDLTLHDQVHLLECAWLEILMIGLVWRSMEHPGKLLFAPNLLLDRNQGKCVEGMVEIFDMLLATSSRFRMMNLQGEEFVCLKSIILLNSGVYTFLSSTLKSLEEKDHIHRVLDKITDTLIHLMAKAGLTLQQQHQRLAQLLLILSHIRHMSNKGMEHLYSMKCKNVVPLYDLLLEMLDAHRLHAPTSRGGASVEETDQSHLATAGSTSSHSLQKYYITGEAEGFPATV

Compound | Potency
CCCN(CCc1cccs1)[C@H]1CCc2c(O)cccc2C1 | inconclusive: 33.5 µM [inhibitor, single point]
CC(C)c1ccc(O)c(C(C)C)c1 | inconclusive: 54.5 µM [inhibitor, partial curve]
CCCCCCCCCCCCCCCCCCOS(=O)(=O)O | inconclusive: 48.6 µM [inhibitor, partial curve, poor fit]
OCCN(CCO)c1nc(N2CCCCC2)c2nc(N(CCO)CCO)nc(N3CCCCC3)c2n1 | inconclusive: 26.6 µM [inhibitor, partial curve, poor fit]

system: not listed separately; test: qHTS assay to identify small molecule phospholipidosis (PLD) inducers (AID 1259344; active = well fitted curve in the direction sought with a large enough effect; inconclusive = small, poorly fitted or top-dose-only effect, or another doubt; inactive = no such curve, though single readings can be large; an effect the other way counts as inactive or inconclusive; for PLD induction: % is set by controls: 0 for no effect and ±100 for the full control effect); conditions: HepG2 phospholipidosis, LipidTOX Red imaging, 24 h; series mostly up to 38.3 µM; PLD induction: at the top concentration
How it was run: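 Quantitative HTS in HepG2: compound plus LipidTOX Red dye for 24 h, paraformaldehyde fixation with Hoechst 33342, widefield high-content imaging; amiodarone as positive and DMSO as negative control.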

Compound | Potency | PLD induction
C[C@]12CCC(=O)C=C1CC[C@@H]1[C@@H]2[C@@H](O)C[C@@]2(C)[C@H]1CC[C@]2(O)C(=O)COC(=O)CCC(=O)O | inconclusive: 11.2 µM [activator, partial curve, poor fit] | –
CCCCCCCCCCC[C@@H](C[C@@H]1OC(=O)[C@H]1CCCCCC)OC(=O)[C@H](CC(C)C)NC=O | – | inactive: 10.6%
CNCC[C@H](Oc1cccc2ccccc12)c1cccs1 | inconclusive: 12.6 µM [activator, single point] | –

system: not listed separately; test: qHTS assay to identify small molecule HDAC inhibitors (AID 1259364); conditions: HCT-116 HDAC-Glo I/II luminescence, 2 h; series mostly up to 92.4 µM; activity change, negative = inhibition: at the top concentration; note: nearly all actives have a fitted effect of over 45% in size; for activity change, negative = inhibition: top concentration of the series differs between compounds; % is set by controls: 0 for no effect and ±100 for the full control effect
How it was run: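 Wild-type HCT-116 cells, plated overnight at 37 C, exposed to compounds 2 hr at 37 C; luminogenic HDAC-Glo substrate then added 30 min at room temperature. Luminescence reports relative endogenous class I/II HDAC activity.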

Compound | activity change, negative = inhibition | Potency
CN(Cc1cc(Br)cc(Br)c1N)C1CCCCC1 | inactive: -2.53% [at 42.5 µM] | –
O=C(Oc1ccccc1)c1ccccc1O | – | inconclusive: 27.4 µM [inhibitor, partial curve] and inconclusive: 27.3 µM [inhibitor, partial curve] and inconclusive: 26.6 µM [inhibitor, partial curve]
CC(O)C#CC(C)O (stereo unspecified) | – | inconclusive: 34 µM [inhibitor, partial curve]
COc1c(C)c2c(c(O)c1C/C=C(\C)CCC(=O)O)C(=O)OC2 | inactive: 7.21% [at 42.5 µM] | –

system: not listed separately; test: qHTS assay to identify small molecule agonists of the sonic hedgehog signaling (Shh) pathway - cell viability counter screen (AID 1259366); conditions: NIH/3T3 Gli1-Luc viability, CellTiter-Fluor, 24 h; series mostly up to 92.4 µM; viability change, negative = cytotoxic: at the top concentration; note: nearly all actives have a fitted effect of over 50% in size; for viability change, negative = cytotoxic: % is set by controls: 0 for no effect and ±100 for the full control effect
How it was run: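 Same-well cytotoxicity read. Gli1-Luc reporter 3T3 cells; compounds 24hr, 37C/5% CO2; CellTiter-Fluor fluorescence.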

Compound | Potency | viability change, negative = cytotoxic
O=C1OC2(c3ccc(O)cc3Oc3cc(O)ccc32)c2ccc(N=C=S)cc21 | inconclusive: 31.2 µM [rising, partial curve, poor fit] | –
O=C(Cl)c1cc(C(=O)Cl)cc(C(=O)Cl)c1 | inconclusive: 77 µM [cytotoxic, single point] | –
CC(=O)Nc1ccc(S(=O)(=O)Cl)cc1 | – | inactive: -1.45%
c1ccc2sc(SSN3CCOCC3)nc2c1 | active: 48.5 µM and inconclusive: 77 µM [cytotoxic, single point] | –
C=C[C@](C)(O)CC[C@@H]1[C@@]2(C)CCCC(C)(C)[C@@H]2CC[C@@]1(C)O | inconclusive: 68.6 µM [cytotoxic, single point] | –
CC(O)C#CC(C)O (stereo unspecified) | active: 53.9 µM | –
OCCN(CCO)c1nc(N2CCCCC2)c2nc(N(CCO)CCO)nc(N3CCCCC3)c2n1 | inconclusive: 3.76 µM [rising, full curve] | –
CCCC(C)c1ccccc1O (stereo unspecified) | inconclusive: 68.6 µM [cytotoxic, partial curve, poor fit] | –

system: not listed separately; test: qHTS assay to identify small molecule antagonists of the sonic hedgehog signaling (Shh) pathway - cell viability counter screen (AID 1259367); conditions: NIH/3T3 Gli1-Luc viability, CellTiter-Fluor, 24 h; series mostly up to 92.4 µM; viability change, negative = cytotoxic: at the top concentration; note: nearly all actives have a fitted effect of over 55% in size
How it was run: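 Seed 3T3 Gli1-Luc cells at 2,000 per well; incubate 4 hr; add compound in DMSO, then conditioned medium; incubate at 37C with 5% CO2; add CellTiter-Fluor after 23 hr; read fluorescence 1 hr later.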

Compound | Potency
N[C@@H](CSSC[C@H](N)C(=O)O)C(=O)O | inconclusive: 0.376 µM [cytotoxic, single point]
c1ccc2sc(SSN3CCOCC3)nc2c1 | active: 54.4 µM and inconclusive: 68.6 µM [cytotoxic, single point]
C=C[C@](C)(O)CC[C@@H]1[C@@]2(C)CCCC(C)(C)[C@@H]2CC[C@@]1(C)O | inconclusive: 68.6 µM [cytotoxic, single point]
CC(O)C#CC(C)O (stereo unspecified) | active: 60.5 µM
CN1CCC(N(Cc2cccs2)c2ccccc2)CC1 | inconclusive: 29.8 µM [cytotoxic, single point]
CNCC[C@H](Oc1cccc2ccccc12)c1cccs1 | active: 33.5 µM
OCCN(CCO)c1nc(N2CCCCC2)c2nc(N(CCO)CCO)nc(N3CCCCC3)c2n1 | inconclusive: 3.35 µM [rising, full curve]
CCCC(C)c1ccccc1O (stereo unspecified) | inconclusive: 30.6 µM [cytotoxic, full curve]

system: not listed separately; test: qHTS assay to identify small molecule antagonists of the sonic hedgehog signaling (Shh) pathway (AID 1259369; calls by dose curve; note: nearly all actives have a fitted effect of over 45% in size); conditions: NIH/3T3 Gli1-Luc reporter, Shh antagonist, luminescence 24 h; series mostly up to 92.4 µM; activity change, negative = inhibition: at the top concentration
How it was run: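 NIH/3T3-derived Gli1-Luc reporter cells plated 4 h, dosed with compound, then stimulated with conditioned medium for 24 h at 37 C. Firefly luciferase luminescence read after 30 min with detection reagent at room temperature.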

Compound | Potency | activity change, negative = inhibition
N[C@@H](CSSC[C@H](N)C(=O)O)C(=O)O | active: 0.335 µM | –
NS(=O)(=O)O | inconclusive: 6.86 µM [inhibitor, single point] | –
O=c1n(CCCN2CCN(c3cccc(Cl)c3)CC2)nc2ccccn12 | inconclusive: 48.6 µM [inhibitor, partial curve] | –
CCCN(CCc1cccs1)[C@H]1CCc2c(O)cccc2C1 | inconclusive: 26.6 µM [inhibitor, single point] | –
CCCCCCCCCCCCN1CCCCCC1=O | inconclusive: 24.3 µM [inhibitor, full curve, poor fit] | –
Nc1nc(-c2ccccc2)c(Br)c(=O)[nH]1 | – | inactive: 7.79% [at 42.5 µM]
c1ccc2sc(SSN3CCOCC3)nc2c1 | inconclusive: 30.6 µM [inhibitor] | –
C=CC(C)(CCC=C(C)C)OC(=O)/C=C/c1ccccc1 (stereo unspecified) | inconclusive: 68.6 µM [inhibitor, partial curve, poor fit] | –
CN1CCC(N(Cc2cccs2)c2ccccc2)CC1 | inconclusive: 11.9 µM [inhibitor, full curve, poor fit] | –
CNCC[C@H](Oc1cccc2ccccc12)c1cccs1 | active: 2.37 µM | –
CCCCCCCCCCCCCCCCCCOS(=O)(=O)O | – | inactive: 8.21%
COc1ccc(C(=O)CC(=O)c2ccc(C(C)(C)C)cc2)cc1 | inconclusive: 37 µM [inhibitor, partial curve, poor fit] | –
CC(C)CCCCCCc1ccc(OCCOCCO)cc1 | inconclusive: 54.7 µM [inhibitor, single point] | –
CC(Cc1cccc(C(F)(F)F)c1)NCCOC(=O)c1ccccc1 (stereo unspecified) | inconclusive: 29.8 µM [inhibitor, single point] | –
Oc1ccc(Oc2ccccc2)cc1 | inconclusive: 23.1 µM [inhibitor, partial curve] | –
